Measured values published in the supplement of paper PMC12217912.
The other results are listed elsewhere or left out. The full chains were built here from the parent and the listed change. Inactive controls read about 0.05.

B1: TEV protease; numbered along this chain (parent)
chain: MGESLFKGPRDYNPISSSICHLTNESDGHTTSLYGIGFGPFIITNKHLFRRNNGTLVVQSLHGVFKVKDTTTLQQHLVDGRDMIIIRMPKDFPPFPQKLKFREPQREERICLVTTNFQTKSMSSMVSDTSCTFPSGDGIFWKHWIQTKDGQCGSPLVSTRDGFIVGIHSASNFTNTNNYFTSVPKNFMELLTNQEAQQWVSGWRLNADSVLWGGHKVFMVKPEEPFQPVKEATQL

Variants of: B1
Assay: raw area under fraction-flipped curve 0-4 h after induction (AUC4h, not background-subtracted), DNA-recorder readout of cleavage of the substrate (dimensionless); higher = more cleavage of the substrate by the protease variant
Conditions: temperature: 34 °C; time window: 0-4 h after rhamnose induction
Experimental: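 In vivo DNA recorder in E. coli TOP10(DE3) ΔrhaA at 34 °C. Each TEVp single-site mutant (parent TEVp 0) is paired with a single-site variant of the 7-mer TEVs (canonical ENLYFQ|S). The substrate sits between flexible linkers in a Bxb1-sfGFP-TEVs-SsrA fusion, so cleavage stabilises Bxb1 and speeds flipping of a recombination array, read by NGS. The value is the raw area under the fraction-flipped curve over 0-4 h after rhamnose induction (AUC4h), with ≥20 reads per time point. It is not background-subtracted; inactive controls average about 0.047.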
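Also: Bxb1 expression induced with 0.2% (w/v) L-rhamnose at OD600 near 0.5, cultures sampled hourly, flipped fraction per protease–substrate barcode pair counted by paired-end Illumina sequencing.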

Variant	area with substrate ENLYDQS	area with substrate ENLYEQS	area with substrate ENLYHQS	area with substrate ENLYIQS	area with substrate ENLYKQS	area with substrate ENLYMQS	area with substrate ENLYNQS	area with substrate ENLYPQS	area with substrate ENLYQQS	area with substrate ENLYRQS	area with substrate ENLYTQS	area with substrate ENLYVQS	area with substrate ENLYWQS	area with substrate ENLYYQS	area with substrate ENLYGQS	area with substrate ENLYLQS	area with substrate ENLYSQS
S123K	0.06	0.0647	0.0655	0.182	0.0641	0.0987	0.07	0.0912	0.0723	0.0553	0.13	0.161	0.0699	0.0575	–	–	–
N175C	0.0583	0.0714	0.0548	0.0931	0.0705	–	0.0527	0.0605	0.0327	–	0.0537	0.0974	0.0623	–	0.0603	0.0614	–
F173A	0.0653	0.0564	0.0532	–	0.056	0.0727	0.0594	0.0537	–	0.0726	0.0612	0.116	0.0757	–	0.0619	0.0806	–
H143C	–	0.0763	0.0618	0.0964	0.0618	–	0.083	–	0.0647	–	0.0617	–	–	–	0.0428	–	0.0719
R204T	0.0574	0.0649	0.0581	0.123	–	0.0906	0.0689	0.0691	0.0469	0.0383	0.0902	0.0612	0.075	0.0636	0.0638	–	0.0922
F133E	0.0474	0.0819	–	0.109	0.0704	–	0.0681	0.0656	–	0.0563	0.106	0.121	0.132	0.0693	0.0704	0.111	–
D82Y	–	0.0515	0.0475	–	0.067	0.0615	0.0502	–	0.0482	0.043	–	–	0.0469	–	0.0583	–	0.0558
C152S	–	0.067	0.0534	0.0658	0.0346	0.0571	0.0608	0.053	0.0682	0.0586	–	0.0576	–	–	0.0639	0.0408	0.078
Q227I	0.0535	0.0591	–	0.114	0.0335	0.108	0.0724	0.0677	–	0.0656	–	0.109	0.0817	0.0737	0.0673	–	–
P222C	0.0437	0.0601	0.0582	0.0842	0.0611	0.0939	0.0615	0.073	0.0819	0.0664	–	–	0.0747	–	0.0689	–	–
Q105C	0.0625	0.0594	0.0717	–	0.0612	0.089	0.067	0.0704	–	0.0703	–	0.116	–	–	0.074	–	–
V183T	0.0628	0.0679	0.0689	0.119	0.0826	0.0947	0.0721	0.0961	0.0623	–	–	0.133	0.0685	0.0627	0.0671	–	0.0677
Q197G	0.0514	0.0659	0.0585	–	0.0599	0.0744	0.0739	–	0.0594	–	0.112	–	–	–	0.049	–	–
G162M	0.0591	–	–	0.108	0.0634	0.0711	–	0.0786	–	0.0586	–	–	0.0874	–	0.0664	–	–
